SMILES strings stand for the structures. Where “and” joins values, the source holds several entries; their conditions need not be identical. Equal entries are not always repeated.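 Compound exposure: 48 hours, 5 concentrations, 96-well plates. Abbreviation: GI50, concentration required for 50% inhibition of growth. Definition used: TGI = concentration required for complete inhibition of growth.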 Bridge positions count the residues as written; N and C are the ends. Square brackets hold non-standard residues; d marks the D form. Peptide text beside a SMILES is read from it. * marks the point of attachment. ξ: configuration not given here. PhAc = O=C(Cc1ccccc1)*; ξP = O=C(O)C1CCCN1 A value given as a limit tells only on which side of the number the result lay.

Results on 81 compounds are retold here after PubChem BioAssay (NCI).

The subject of the assay is NCI-H322M lung. Kind of assay: DTP human tumour cell line panel, 48 h.
Broadly, the TGI is the concentration giving total growth inhibition. Higher therefore signals lower sensitivity of the cells. For the compound `N#C/C(=C/c1cccc2ccccc12)C(=O)c1ccccc1`, the TGI was over 100 µM. `N=c1c2c(=S)n(-c3ccccc3)c(=S)n(-c3ccccc3)c2nc(SCCCN2CCCCC2)n1-c1ccccc1` yielded a TGI of 3.46 µM. On the same count and under the same terms, the result for `OC[C@H]1C[C@@H]2Cc3ccccc3N2N1` reads over 100 µM; that for `Cc1ccc(N=Nc2c(O)c(C(=O)O)cc3ccccc23)c(S(=O)(=O)O)c1`, over 100 µM; that for `OCCOCCO/N=C1\C(c2c(O)[nH]c3ccccc23)=Nc2ccccc21`, 20.3 µM. As for `C=C1C(=O)O[C@@H]2C[C@@H]3[C@]4(CC[C@]5(C)[C@@H]([C@H](C)CC/C=C(\C)C=O)CC[C@@]35C)C[C@]4(CCC(=O)OC)[C@H]12`, the concentration for total growth inhibition (TGI) amounted to 6.12 µM. As usually defined, the GI50 is the concentration giving 50% growth inhibition. Take `COC(=O)c1ccc2[nH]c(O)c(C(=Nc3ccc(N(C)C(=O)CN4CCN(C)CC4)cc3)c3cccc(OC)c3)c2c1`: the GI50 is 1.48 µM and the TGI worked out at 6.24 µM. Take `CCCCCOc1ccc(Nc2c(O)c3c(c(O)c2Cl)C(=O)C=CC3=O)cc1`: the TGI was over 10 µM. As to `CN1CCN(CCCOc2ccc3ncnc(Nc4ccc(OCc5cccc(F)c5)c(Cl)c4)c3c2)CC1`, the GI50 was 0.565 µM and the TGI amounted to 1.98 µM. Compound `COC(=O)C1=C(C(=O)OC)C2(C3C(SC)=CC(C)(C)CC3S1)N(Cc1ccccc1)CCN2Cc1ccccc1` (centres undefined) yielded a TGI of over 100 µM. `Nc1ncnc2c1ncn2C1OC(CSC(F)F)C(O)C1O` (centres undefined) showed a TGI of over 100 µM.

Turning to `Cc1nc2ccccc2c(=O)n1NC(=O)c1ccc(N)cc1`, the TGI is over 100 µM. As to `Cc1cc2nc(CS)[nH]c2cc1C`, the GI50 is 19.8 µM and the TGI came to 54.2 µM. For `CCOC(=O)C(=CNC(=S)c1ccncc1)C(=O)OCC`, the TGI is over 100 µM.

`Cc1cccc(-n2c(C)nc3ccc(NC(=S)Nc4ccccc4)cc3c2=O)c1` registered a TGI of over 100 µM. For the compound `COc1ccc(Cc2nn(C3OC(COC(C)=O)C(OC(C)=O)C(OC(C)=O)C3OC(C)=O)c(=S)n(-c3ccc(OC)cc3)c2=O)cc1` (centres undefined), the TGI was over 100 µM.

For `Cn1ccnc1CCc1ccc(Cl)cc1Cl`, the TGI is over 100 µM. For the compound `Cc1ccc2c(c1)C(=O)C(c1c(-c3[nH]c(=O)c4ccc(C)cc4c3O)c(O)c3ccccc3c1O)=NC2=O`, the GI50 was 2.24 µM and the TGI turned out to be 5.85 µM. As to `CC[C@H](C)[C@H](NC(=O)C12CC(NC)(C1)C2)C(=O)N(C)[C@H](C[C@@H](OC(C)=O)c1nc(C(=O)N[C@@H](Cc2ccccc2)C[C@H](C)C(=O)OC)cs1)C(C)C`, the GI50 is 1.32 µM and the TGI is over 25 µM.

The compound `COc1ccc(C2Oc3ccc(O)cc3[C@@H]2C)cc1OC` (some centres undefined) had a TGI of over 100 µM. The same measure, in the same setting: the result for `Oc1c(CNCCCN2CCCC2)cc(Cl)c2cccnc12` reads 20.4 µM; that for `CC(=O)OCC1OC(n2c(C)c(C(C)=O)c(-c3ccc(Cl)cc3)c(C#N)c2=S)C(OC(C)=O)C(OC(C)=O)C1OC(C)=O` (centres undefined), over 100 µM; that for `CC1(C)COC(c2ccc(C(=O)c3ccc(Cl)cc3)cc2)=N1`, over 100 µM.

Regarding `COc1ccc(-c2ccccc2)c(N/N=C2\CCCNC2=O)c1`, the TGI was over 100 µM. `Nc1c(N2CCCCC2)c(=O)nc2[nH]/c(=C\c3ccco3)c(=O)n12` returned a TGI of over 100 µM.

For `Cc1ccc(Oc2ccc(C(=O)c3cccc(C(=O)c4ccc(Oc5ccc(C)cc5)cc4)n3)cc2)cc1`, the TGI was over 100 µM. In turn, `CCOC(=O)Oc1ccc(C(CNC(C)C)OC(=O)OCC)cc1OC(=O)OCC` (centres undefined) gave a TGI of over 100 µM. On the same count and under the same terms, the result for `CC(C)(O)C1CC[C@]2(C)CC[C@]3(C)[C@H](CC[C@@H]4[C@@]5(C)CC[C@H](O)C(C)(C)[C@@H]5CC[C@]43C)[C@@H]12` (some centres undefined) reads 62.4 µM. Consider `CN1CCN(CCOc2ccc(-c3cnc4c(-c5cccc(F)c5F)cnn4c3)cc2)CC1`, for which the GI50 was 1.84 µM and the concentration for total growth inhibition (TGI) came to 3.81 µM. Turning to `CC(C)NC(=O)OCc1c(COC(=O)NC(C)C)n(C)c2c1ccc1ccsc12`, the TGI came out at 34.9 µM. `CN1C(=O)C(O)CC1c1ccc(C(F)(F)F)cc1` (centres undefined) had a TGI of over 100 µM. As for `CC(=O)Oc1cn(-c2ccc(Cl)cc2)nc1C1=NN(C(C)=O)C(c2ccc(F)cc2F)O1` (centres undefined), the GI50 was 20.4 µM and the TGI is 56.9 µM. In turn, `CN(C)C(=S)NC(=S)Nc1ccc2ccccc2c1` came in with a TGI of 56.6 µM. In turn, `Cc1cc(Cc2c(C)c(C)c(Cc3cc(C)cc(C(C)(C)C)c3O)c(C)c2C)c(O)c(C(C)(C)C)c1` registered a TGI of over 100 µM. Consider `N#C/C(=C\c1ccc2c(c1)OCO2)n1nnc2ccccc21`, for which the GI50 was 2.54 µM and the TGI was found to be 12.1 µM. Consider `COc1ccc2c(c1)C(=Nc1ccc(F)c(F)c1F)c1c-2c(Nc2ccc(F)c(F)c2F)nc2ccccc12`, for which the GI50 is over 100 µM and the TGI is over 100 µM. Regarding `O=c1cc(N2CCOCC2)[nH]c(=O)n1-c1cccc(Cl)c1`, the TGI was over 100 µM. Consider `CCOc1c(OC)cc(C2c3cc4c(c(OCC)c3CC3COC(=O)C32)OCO4)cc1OC` (centres undefined), for which the TGI was over 100 µM. On the same count and under the same terms, the result for `Cn1cc(NC(=O)c2cc(NC(=O)CCCCCCCCC(=O)Nc3cc(C(=O)Nc4cc(C(=O)NCCC(N)N)n(C)c4)n(C)c3)cn2C)cc1C(=O)NCCC(=N)N` reads 32.5 µM; that for `COc1ccc(CN(Cc2ccc(OC)cc2)C(=O)CC2(O)CCc3ccccc3C2)cc1` (centres undefined), over 100 µM.

The compound `N/N=C(\CCN1CCCC1)CC(c1ccccc1)c1c(O)c2ccccc2oc1=O` (centres undefined) returned a TGI of over 100 µM.

For the compound `CCc1c(-c2ccccc2)[nH]c2ccccc2c1=O`, the TGI is over 100 µM. For the compound `CCOc1cc2ncc(C#N)c(Nc3ccc(F)c(Cl)c3)c2cc1NC(=O)CC1CCSS1` (centres undefined), the GI50 was 0.455 µM and the TGI was 1.02 µM. `Cc1ccc(/C(O)=C/c2nc3ccccc3[nH]c2=O)cc1`: the total growth inhibition concentration (TGI) turned out to be 38.8 µM.

The compound `CC(=O)/C(N=Nc1ccc(-n2c(C)nc3ccccc3c2=O)cc1)=C(/C)O` yielded a total growth inhibition concentration (TGI) of over 100 µM. The compound `CC(=O)Oc1ccc2c3c1[C@H]1O[C@H]1c1cccc(c1-3)[C@@H]1O[C@H]21` returned a TGI of 28.4 µM. `c1ccc(-c2ccc(-c3ccc(C4=NCCN4)cc3)o2)cc1` gave a TGI of 7.45 µM. This TGI is about 3.8-fold lower than that of the compound before.

Consider `Cc1ncc(CSc2ccccc2N)c(CO)c1O`, for which the TGI is over 100 µM.

Compound `CCN(C(C)=N)c1ccccc1` displayed a TGI of over 100 µM.

`CCOC(=O)COc1ccc(OC)c2c1C(=O)CCC2` came in with a TGI of over 100 µM.

As to `COc1cc(/C=C\c2cc(/C=C\c3ccc(O)c(OC)c3)n(C(=O)COc3ccc(Cl)cc3Cl)n2)ccc1O`, the GI50 was 1.4 µM and the TGI was determined as 11.3 µM. Turning to `COc1cc2c(c(OC)c1OC)-c1ccc(SC)c(=O)cc1C(CC(=O)Oc1ccc(F)cc1)C2` (centres undefined), the GI50 was 0.404 µM; the total growth inhibition concentration (TGI) was 75 µM and 18.3 µM. Turning to `COc1cc2c(Nc3ccc(Cl)c(Cl)c3F)ncnc2cc1OCC1C[C@@H]2CN(C)C[C@@H]2C1` (some centres undefined), the GI50 was 0.0605 µM and 0.0341 µM and 0.0244 µM; the total growth inhibition concentration (TGI) was 7.06 µM and > 5.68 µM and 11 µM. For `CCOC(=O)c1cnc2c(C)cc(C)cc2c1NCCCN(C)C`, the GI50 is 5.26 µM and the TGI was determined as 67.2 µM. In turn, `COc1ccc(-n2cnc3c(N)nc(N)nc32)cc1` yielded a concentration for total growth inhibition (TGI) of over 100 µM.

`O=C1/C(=C/c2ccc(Cl)cc2Cl)CN(S(=O)(=O)c2ccccc2)C/C1=C\c1ccc(Cl)cc1Cl`: the GI50 was 0.662 µM and the TGI came out at 16.5 µM.

Regarding `NCCN1C(=O)c2cc(Cl)c(Cl)cc2C1(O)c1ccc(Cl)cc1` (centres undefined), the TGI came to 5.94 µM. Compound `N/C(=N\Nc1ccc(C(=O)O)cc1)c1cnccn1` had a TGI of over 100 µM. For `CC(=O)COC(=O)CC(C)=O`, the TGI is over 100 µM. `O=C(Cc1ccccc1)N[C@@H]1COC(=O)C2CCCN2C(=O)[C@@H]2CCCN2C1=O` (some centres undefined) (PhAc-[dS]-Pro-[ξP]; ester 1-C) registered a TGI of over 100 µM. The same measure, in the same setting: the value for `Cc1ccc(SC2=C(N(C)C)C(=O)c3ccccc3C2=O)cc1` was 30.1 µM. For the compound `COc1cc2c(cc1OC)-c1cc(OC)c(OC)cc1[C@H]1CN3CCC[C@@]3(O)C=C21`, the TGI turned out to be 0.000567 µM. This TGI lies about 53000-fold lower than the previous one. As for `O=C(NC(N1CCN(c2cc3c(cc2F)c(=O)c(C(=O)O)cn3C2CC2)CC1)(C(F)(F)F)C(F)(F)F)c1ccccc1`, the TGI was 93.3 µM. As to `COc1ccc(NC(=O)CSc2nnc(-c3ccc(N=Cc4ccc(Cl)cc4)cc3)o2)cc1`, the TGI is 89.8 µM. `CC(C)c1ccc(COCc2cc(CN3CCCC3)c(O)c3ncccc23)cc1`: the GI50 was 0.407 µM and the TGI was found to be 9.06 µM. Turning to `COc1ccc2c(N=[N+]=[N-])c(-c3ccccc3)c(=O)oc2c1`, the TGI was over 100 µM. Turning to `COc1cc2c[n+](C)c3c4cc(OC)c(OC)cc4c(OCCCCCCCCOc4cc5c6cc(OC)c(OC)cc6c[n+](C)c5c5cc(OC)c(OC)cc45)cc3c2cc1OC`, the TGI is over 100 µM.

The compound `COc1ccc2c(c1)CCc1cc(C(N)=O)c3nnnn3c1-2` showed a TGI of over 100 µM. The compound `C[N+](C)(C)CC1CCCC(C[N+](C)(C)C)C1=NO` (centres undefined) came in with a TGI of over 100 µM. In the case of `N[C@@H]1CCCC[C@@H]1N.O=P([O-])([O-])CNCP(=O)([O-])[O-].[Pt+2]`, the GI50 was over 100 µM and the TGI was over 100 µM. `COC(=O)C1CC2c3c(c4ccccc4n3C)CC(C1=O)N2C` (centres undefined) gave a TGI of over 100 µM. Consider `COC1CC(OC2C(C)OC(OC3C(C)OC(OC4CCC5(C)C(=CCC6(O)C5CC(OC(=O)c5ccc(O)cc5)C5(C)C(O)(C(C)=O)CCC65O)C4)CC3OC)CC2OC)OC(C)C1O` (centres undefined) (tested in a mixture with another compound), for which the TGI is over 100 µM.

Compound `COc1ccc(NC(C)=O)cc1N1C(=O)/C(=C\c2cccc(Oc3ccccc3)c2)S(=O)(=O)C1c1ccccc1` (centres undefined) returned a TGI of over 100 µM.

As for `COc1cccc(CNCCN2C(=O)c3ccc4c5c(ccc(c35)C2=O)C(=O)N(CCNCc2cccc(OC)c2)C4=O)c1`, the GI50 was 2.48 µM and the TGI is 7.79 µM.

With `COc1ccc(/C=C/C(=O)c2cc(C(=O)O)c(OC)cc2OC)cc1OC`, the TGI was over 100 µM. Still for that read-out and setting: the result for `CC1=C(C)C2(C#N)C(=O)N3C(=NC(c4ccccc4)NC3c3ccccc3)C2(C#N)C(c2ccccc2)N1` (centres undefined) reads over 100 µM; that for `CCCCCCCCCCCCCCCC(=O)Nc1ccn(C2OC(CO)C(O)C2O)c(=O)n1` (centres undefined), over 100 µM. `CN(C)CCNC(=O)c1cccc2c(NC(CCCN=C(N)N)C(=O)O)c3ccccc3[n+](C)c12` (centres undefined) had a TGI of over 100 µM. On to `CC(C)N(C(=O)C12C3(C(=O)OC(C)(C)C)C4C5(C#N)C3C1(C(=O)OC(C)(C)C)C5C42C(=O)OC(C)(C)C)C(C)C` (centres undefined), for which the TGI was over 100 µM.

Regarding `COc1ccc(/C=C/c2cc(OC)cc(OC)c2)cc1`, the TGI came to 53.7 µM. Compound `c1ccc(CNc2ccc3[nH]c4cnccc4c3c2)cc1` yielded a TGI of 33.3 µM. Compared with the last compound, the TGI is about 1.6-fold lower.
